The list shows a part of the results. These are further read-outs of the screen, such as a control signal, another cell line or another target. No call is given for them. Most of these compounds were active or inconclusive in the main read-out, so they are no random draw.
Assay: insulin promoter activators in MIN6 cells, imaging, high-content screening, mouse beta cells (AID 1625);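 further: total cells summed across four imaged fields per well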
Conditions: MIN6 insulin promoter-GFP reporter, measured here: cytotoxicity, nuclei count, at 5 µM

Structure (SMILES)	cell count [cells]
CCOC(=O)C1CCN(Cc2ccc(O)c3ncccc23)CC1	336
O=C(Nc1nc2c(F)cc(F)cc2s1)c1ccccn1	419
COc1ccc(-n2c(-c3ccc(Cl)cc3)c[n+]3c2CCCCC3)cc1	261
Cc1cccc(OCCNc2nc3c(c(=O)n(C)c(=O)n3C)n2C)c1	1450
COc1cc([N+](=O)[O-])ccc1NC(=O)CC1SC(=Nc2ccc(F)cc2)N(CCC2=CCCCC2)C1=O (stereo not given)	475
CCCCCc1cc(=O)oc2c(C(CCN3CCCC3)c3cc(OC)c(OC)c(OC)c3)c(OC)cc(OC)c12 (stereo not given)	155
Cc1ccc(OCC2Cn3c(nc4c3c(=O)[nH]c(=O)n4C)O2)cc1 (stereo not given)	476
O=C(/C=C/c1cccnc1)/C=C/c1cccnc1	273
Cc1[nH]c2ccccc2c1/C=N/Nc1ccc([N+](=O)[O-])cc1S(=O)(=O)Nc1ccc(Cl)cc1	723
Cc1cccc(NC2=C/C(=N/S(=O)(=O)c3cccs3)c3ccccc3C2=O)c1	397
CCc1c(C(=O)NC2CCCCC2)[nH]c(C)c1C(C)=O	1360
CCOc1ccc(S(=O)(=O)N2c3ccccc3CC2C)cc1 (stereo not given)	485
CN(C)c1ccc(/C=C/C(=O)c2c(O)c3ccccc3oc2=O)cc1	1090
S=C(Sc1ccc(Cl)cc1)Sc1ccc(Cl)cc1	205
COc1ccc(C2/C=C\CN(S(=O)(=O)c3cccc4cccnc34)CC(=O)N2Cc2ccc(F)cc2)cc1 (stereo not given)	997
CCCCn1c(=N)n(CC(O)COc2cccc(C)c2)c2ccccc21 (stereo not given)	355
C#CC[N+](C)(C)CCCCCCCCCCCC	425
Cc1nn(Cc2ccccc2)c(Cl)c1/C=N/NC(=O)c1cccnc1	490
COc1ccc(/C=C2\C(=O)NC(=S)N2C(=O)c2ccc(F)cc2)cc1	1450
N=c1c2c(-c3ccccc3)c(-c3ccccc3)n(Cc3ccco3)c2ncn1CCCn1ccnc1	349
COc1ccc(/C=C/c2cc(-c3ccc(C)cc3)o[n+]2C)cc1	210
COc1ccc(OC)c(C2=NOC(C(=O)NCC3CCCO3)C2)c1 (stereo not given)	1240

Structure (SMILES)	cell count [cells]
O=C(Nc1nccs1)c1cccc(N2C(=O)c3cccc4c([N+](=O)[O-])ccc(c34)C2=O)c1	440
C[n+]1c2n(c3ccccc31)N=C(c1ccc(-c3ccccc3)cc1)CS2	325
CN1/C(=C\C=C(/C#N)C(=O)Nc2ccc(Cl)cc2)C(C)(C)c2ccccc21	1280
O=C(c1cc([N+](=O)[O-])ccc1N1CCCC1)N1CCCC1	1230
COc1ccc(/C=N/OCC(=O)NC(c2ccccc2)c2ccccc2)cc1OC	484
CC(C)C(C)(C#N)NC(=O)CSc1nnc(C(F)(F)F)n1C (stereo not given)	1210
Cc1cc(/C=N/n2cnnc2)c(C)n1-c1ccc(OCc2ccc(Cl)cc2)cc1	446
O=C(N/N=C\c1cn(-c2ccccc2)nc1-c1ccccc1)c1ccc(Br)o1	1200
Cc1c(C(=O)NCC2COc3ccccc3O2)oc2ccc(S(=O)(=O)N3CC(C)CC(C)C3)cc12 (stereo not given)	404
CCc1ccc2c(c1)C1(NN=C(c3ccc(C)cc3)S1)C(=O)N2 (stereo not given)	447
Clc1ccc(OCCN2CCN(c3ncnc4sccc34)CC2)cc1	290
N#C/C(=C\C1=C(N2CCOCC2)C(=C\c2ccc(Cl)cc2)/CC1)C(=O)Nc1ccccc1F	1280
COc1ccc(Br)cc1C(C[N+](=O)[O-])c1c(N)n(C)c(=O)n(C)c1=O (stereo not given)	303
Cc1nc2ccc(NS(=O)(=O)c3ccc4c(c3)OCCO4)cc2s1	486
COc1ccc(S(=O)(=O)Cc2ccc(C(=O)N3CCOCC3)o2)cc1	403
CCOc1cc(CNCCc2ccc(S(N)(=O)=O)cc2)cc(Cl)c1OCc1ccccc1	251
Cc1cccc(Oc2nccc(C(F)(F)F)c2C(=O)Nc2ccc(F)cc2F)c1	1420
O=C1/C(=C/c2ccncc2)CCC/C1=C\c1ccncc1	458
Cc1ccccc1SCc1noc(C(=O)NC(C)C)c1C(=O)O	1370
CCOc1cc(S(=O)(=O)NCc2ccncc2)ccc1Cl	332
CN(C)c1ccc(NC2=C(Cl)C(=O)c3ccccc3C2=O)cc1	246
CC(=O)c1cccc(NS(=O)(=O)c2ccc(N/C=C\C(=O)c3ccc(F)cc3)cc2)c1	437

Structure (SMILES)	cell count [cells]
O=C(c1cc2sccc2n1Cc1ccc(F)cc1)N1CCN(c2nc3ccccc3s2)CC1	438
O=C(CSc1nnc(C2CC2)n1-c1ccccc1)NCc1ccco1	338
COc1cccc(C2C3CN(C)CC=C3C(C#N)=C(N)C2(C#N)C#N)c1OC (stereo not given)	1470
Cc1csc(NC(=O)c2sc3nc(-c4cccs4)ccc3c2N)n1	1840
N=c1c2c(-c3ccccc3)c(-c3ccccc3)n(Cc3ccco3)c2ncn1CCO	396
Cc1ccc(Cl)cc1N1CCN(CC(=O)Nc2ccc(CN3CCCCC3)cc2)CC1	273
C=CCn1c(SCc2cccc(F)c2)nc2cc(C(=O)N3CCC(C(N)=O)CC3)ccc2c1=O	398
O=C(O)c1cc(-c2ccncc2)nc2ccc(F)cc12	1300
CC[n+]1c(/C=C2/C=C(C)CC(C)C2)sc2ccccc21 (stereo not given)	258
O=c1[nH]c(CN2CCN(Cc3ccc4c(c3)OCO4)CC2)nc2sc3c(c12)CCC3	1190
O=c1cc(/N=C/c2coc3c(ccc4ccccc43)c2=O)[nH]c(=S)[nH]1	470
CC(=O)n1cc(N(C(=O)CCl)c2ccccc2)c2ccccc21	309
COc1ccc(/C=C2\CC/C(=C\c3ccc(OC)cc3OC)C2=O)c(OC)c1	1300
Cc1ccc(N2CCN(CC(=O)Nc3c(C(=O)C4CC4)oc4ccccc34)CC2)cc1	318
Cc1ccc(S(=O)(=O)N2CCCC2C(=O)N(C)Cc2cccs2)cc1 (stereo not given)	950
N#CC(C#N)=C1C=C2C=C(N3CCOCC3)CCC2CC1 (stereo not given)	1400
CC(C(=O)NC1CCCc2ccccc21)N1CCN(Cc2ccc3c(c2)OCO3)CC1 (stereo not given)	381
COc1cc(CN(C)CC(=O)c2[nH]c(C)c(C(C)=O)c2C)ccc1OC(F)F	348
CC(C)(C)NS(=O)(=O)c1ccc(CCC(=O)Nc2cc(Cl)ccc2Oc2ccccc2)cc1	449
N#CC(c1cccc(Cl)c1)c1ccc2c(C(F)(F)F)cc(C(F)(F)F)nc2n1 (stereo not given)	318
CC1CCCCN1c1ncnc2ccccc12 (stereo not given)	495

From PubChem BioAssay AID1625 (Sanford-Burnham Center for Chemical Genomics, 2009)
